# Experimental data as given in ChEMBL document CHEMBL4888484, “Replenishing the malaria drug discovery pipeline: Screening and hit evaluation of the MMV Hit Generation Library 1 (HGL1) against asexual blood stage Plasmodium falciparum ,using a nano luciferase reporter read-out” (2022).
# Hit rate of the full screen: of about 150,000 compounds, about 540 (0.36%) showed an effect of 50% or more. The list shows a part of the results.
# System: Plasmodium falciparum
# Assay: Primary screen in NF54 nanoGlo assay, in single point, at 2uM, 72h; a lower Z score goes with more inhibition
# Format: functional, Erythrocyte
# Conditions: timepoint 72 hour
SMILES,% Inhibition,Z score
CCC(=O)N(C)CC(=O)Nc1ccc(Cl)cc1,7%,-0.66
COC(=O)c1cc(CNCc2ccccc2OC)on1,-9%,0.74
Cc1oc(-c2ccccc2)nc1Cn1nnc(-c2nc(-c3cccc(Br)c3)no2)c1C,-7%,0.96
Cc1cc(Br)ccc1N1CC[C@@H](C(=O)NC2CC2)C1=O,31%,-0.35
O=C(c1cnc(NC[C@@H](CO)c2cccnc2)c(Cl)c1)N1CCOCC1,-14%,2.3
COCCCn1cnc2c(-c3ccccc3)cn(CC(=O)Nc3ccccc3C)c2c1=O,-1%,0.16
CCc1nc(C)sc1C(=O)N[C@@H]1COCC[C@@H]1OCc1ccccc1,-9%,1.25
CCCNC(=O)CN(CCC)C(=O)[C@@H](c1cnn(C)c1)N(C)C(=O)OC(C)(C)C,-6%,0.54
Cc1ncn(CCNC(=O)[C@@H]2CCCCCN2C)c1C,-8%,1
c1ccc(Cc2cn[nH]c2C2CCN(C3Cc4ccccc4C3)CC2)cc1,10%,-2.1
COc1ccccc1CNS(=O)(=O)c1c(C)c(C)cc2c(C)c(C(=O)N3CCCC3)oc12,-8%,1
COCCN1C[C@@H](Cn2cnc(-c3ccccc3)c2C)CC1=O,-1%,0.27
Cc1ccsc1C(=O)N1CC[C@@]2(CCCN(Cc3cccnc3)C2=O)C1,-5%,0.87
Cc1ccc(-c2nnc(N3CCN(Cc4ccccc4)CC3)n2CCOc2ccccc2)s1,-9%,1.5
O=C(NC[C@H]1C[C@@H]1c1ccc(Cl)cc1Cl)c1cccnn1,7%,-1.31
Cn1cnnc1[C@@H]1CCCN1CC(=O)Nc1ccc(S(=O)(=O)C(F)F)cc1,-7%,0.86
c1ccc2[nH]c(C3CCN(Cc4cc(CN5CCCC5)cs4)CC3)nc2c1,-10%,2.16
CCOc1ccc(NC(=O)Cn2c(=O)c3nncn3c3ccccc32)cc1,-9%,0.97
Cc1ccc(NC(=O)Cn2nc(-c3ccco3)c3sc(N4CCCCC4)nc3c2=O)cc1Cl,-1%,0.23
OCCn1cc(N[C@H]2CCOC23CCCC3)cn1,-1%,0.16
CN(C)[C@H]1CN(Cc2ncccn2)C[C@@H]1C1CC1,11%,-0.97

SMILES,% Inhibition,Z score
CCC[C@H]1CN(c2nc(N(C)C)ns2)C[C@@H]1C(=O)O,-10%,1.33
CCN1CCC[C@@H]1CNS(=O)(=O)c1c(C)c(C)cc2c(C)c(C(=O)N3CCCCC3)oc12,-4%,0.84
O=C(NC1CCCCC1)N1Cc2nc[nH]c2C[C@H]1c1nc(-c2ccc(F)c(Cl)c2)no1,-3%,0.5
CC(C)[C@H](CNS(=O)(=O)C1CCOCC1)Cc1ccccc1,9%,-1.35
CN(Cc1nnc(C2CC2)n1C)C(=O)c1ccc(-n2ccnn2)cc1,-8%,1.09
COc1cc(NS(=O)(=O)c2ccc(-n3cnnn3)cc2)nc(OC)n1,33%,-4.24
Cc1sc2nc(CN3CCC(C)CC3)nc(N3CCC(NC(=O)c4ccncc4)CC3)c2c1C,10%,-1.9
CCOc1ccc(S(=O)(=O)N2CCN(Cc3nc(-c4cccc(Cl)c4)oc3C)CC2)cc1,-8%,1.03
C[C@@H]1CN(C(=O)c2ccc[nH]2)CC[C@@]1(O)C1CCOCC1,-16%,2.79
Cc1cc(C(C)(C)C(=O)NC[C@H](O)c2ccnn2C)ccc1Br,-9%,1.43
Cc1cc(F)ccc1-n1c(=O)c2sccc2n(CC(=O)N(C)c2ccccc2)c1=O,0%,0.04
COC(=O)[C@@](c1cc(C)c(O)c(C)c1)(N1CCN(c2ccccc2)CC1)C(F)(F)F,-5%,0.64
COC(=O)c1c(Cl)ccc(C(N)=O)c1Cl,-6%,0.87
CCS(=O)(=O)N1CC(=O)N(c2ccc(NC(C)=O)cc2)[C@](C)(C(=O)NC2CCCCCC2)C1,-4%,0.72
Cc1cc(N(C)C[C@H]2CCOC2)nc2cc(F)ccc12,-7%,1.37
CC(C(C)S(C)(=O)=O)N(C)C(=O)c1ccc2c(c1)N(C)CC2 (centres undefined),0%,0.07
CC(C)(C)c1cnc(CNc2nnc([C@@H]3CCCO3)o2)s1,-6%,0.84
CCCCCNC(=O)C1CCC(Cn2cnnn2)CC1 (centres undefined),-5%,0.6
C[C@]1(n2cc(CN3CCOCc4ccccc43)cn2)CCS(=O)(=O)C1,-2%,0.32
O=C(NS(=O)(=O)c1cccnc1)c1ccc(OC2CCC2)cc1Cl,1%,-0.17
Cc1ccc(O)c(NC(=O)OC(C)(C)C)c1,-8%,1.26
